According to article PMC8402715 (Viruses, 2021):

Assays:
FLUAV-infected RPE cells = assay: Metabolomics of polar metabolites in media of FLUAV-infected RPE cells; conditions: FLUAV-infected RPE cells (moi 1), 10 μM, 24 h
mock-infected RPE cells = assay: Metabolomics of polar metabolites in media of mock-infected RPE cells; conditions: non-infected RPE cells, 10 μM, 24 h

| SMILES | levels of inosine and D-ribose 5-phosphate in the media (FLUAV-infected RPE cells) | levels of trimethylamine-N-oxide, phosphoethanolamine and hippuric acid (mock-infected RPE cells) |
| --- | --- | --- |
| CCOC(=O)C1=C(COCCN)NC(C)=C(C(=O)OC)C1c1ccccc1Cl (centres unmarked) [amlodipine, Amlodipine] | substantially elevated |  |
| C#C[C@]1(O)CC[C@H]2[C@@H]3CCC4=CC(=O)CC[C@@H]4[C@H]3CC[C@@]21CC [levonorgestrel, Levonorgestrel] |  | substantially lowered |
